In the supplement of paper PMC12230231 one finds enrichment data, which are given here for eleven sequences.

± gives the standard deviation of the averaged measurements. Restriction of a single-cycle SIVsab GFP reporter by TRIM5α v1-loop variants in CRFK cells. Human variants: read share among cells still uninfected after two challenges over input, higher = gained restriction. Rhesus variants: share among infected cells over input, higher = lost restriction. Reporter dose not given per row. No active / inactive call per row; the paper calls a change when both replicates lie above its controls (mean + 2 SD of stop or wild-type variants, or the top frameshift score). Residues outside the varied loop are taken from Swiss-Prot. The paper reads the human single-substitution scores as noise; they and the rhesus combinations repeat poorly (rank correlation 0.3 to 0.4), indel scores repeat only for the top variants, rhesus substitutions well (0.9).

This data set concerns SIVsab (simian immunodeficiency virus of sabaeus monkeys), single-cycle GFP reporter, in CRFK cells. The data set is described as follows: enrichment among uninfected cells over input (fold); higher = stronger restriction. As to conditions: library: insertions and deletions. The procedure: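 Pools of CRFK cells expressing variants of the TRIM5α v1 loop were challenged with the single-cycle reporter, sorted by GFP and sequenced; mean of two replicates.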
With “MASGILVNVKEEVTCPICLELLTQPLSLDCGHSFCQACLTANHKKSMLDKGESSCPVCRISYQPENIRPNRHVANIVEKLREVKLSPEGQKVDHCARHGEKLLLFCQEDGKVICWLCERSQEHRGHHTFLTEEVAREYQVKLQAALEMLRQKQQEAEELEADIREEKASWKTQIQYDKTNVLADFEQLRDILDWEESNELQNLEKEEEDILKSLTNSETEMVQQTQSLRELISDLEHRLQGSVMELLQGVDGVIKRTENVTLKKPETFPKNQRRVFRAPDLKGMLEVFRELTDVRRYWVDVTVAPNNISCAVISEDKRQVSSPKPQIIYGARGTRYQTFVNFNYCTGNYCTGILGSQSITSGKHYWEVDVSKKTAWILGVCAGFQPDAMCNIEKNENYQPKYGYWVIGLEEGVKCSAFQDSSFHTPSVPFIVPLSVIICPDRVGVFLDYEACTVSFFNITNHGFLIYKFSHCSFSQPVFPYLNPRKCGVPMTLCSPSS [human TRIM5α, 5-codon duplication at 343]”, the enrichment is 0.402 ± 0.018.

The sequence “MASGILVNVKEEVTCPICLELLTQPLSLDCGHSFCQACLTANHKKSMLDKGESSCPVCRISYQPENIRPNRHVANIVEKLREVKLSPEGQKVDHCARHGEKLLLFCQEDGKVICWLCERSQEHRGHHTFLTEEVAREYQVKLQAALEMLRQKQQEAEELEADIREEKASWKTQIQYDKTNVLADFEQLRDILDWEESNELQNLEKEEEDILKSLTNSETEMVQQTQSLRELISDLEHRLQGSVMELLQGVDGVIKRTENVTLKKPETFPKNQRRVFRAPDLKGMLEVFRELTDVRRYWVDVTVAPNNISCAVISEDKRQVSSPKPQIIYGARGTRYQTFVNFNYCTGVNFNYCTGILGSQSITSGKHYWEVDVSKKTAWILGVCAGFQPDAMCNIEKNENYQPKYGYWVIGLEEGVKCSAFQDSSFHTPSVPFIVPLSVIICPDRVGVFLDYEACTVSFFNITNHGFLIYKFSHCSFSQPVFPYLNPRKCGVPMTLCSPSS [human TRIM5α, 8-codon duplication at 340]” yielded an enrichment of 2.66 ± 3.3.

Turning to “MASGILVNVKEEVTCPICLELLTQPLSLDCGHSFCQACLTANHKKSMLDKGESSCPVCRISYQPENIRPNRHVANIVEKLREVKLSPEGQKVDHCARHGEKLLLFCQEDGKVICWLCERSQEHRGHHTFLTEEVAREYQVKLQAALEMLRQKQQEAEELEADIREEKASWKTQIQYDKTNVLADFEQLRDILDWEESNELQNLEKEEEDILKSLTNSETEMVQQTQSLRELISDLEHRLQGSVMELLQGVDGVIKRTENVTLKKPETFPKNQRRVFRAPDLKGMLEVFRELTDVRRYWVDVTVAPNNISCAVISEDKRQVSSPKPQIIYGARGTRYQTFVNFNYCTGYCTGILGSQSITSGKHYWEVDVSKKTAWILGVCAGFQPDAMCNIEKNENYQPKYGYWVIGLEEGVKCSAFQDSSFHTPSVPFIVPLSVIICPDRVGVFLDYEACTVSFFNITNHGFLIYKFSHCSFSQPVFPYLNPRKCGVPMTLCSPSS [human TRIM5α, 4-codon duplication at 344]”, the enrichment turned out to be 0.529 ± 0.26.

On to “MASGILVNVKEEVTCPICLELLTQPLSLDCGHSFCQACLTANHKKSMLDKGESSCPVCRISYQPENIRPNRHVANIVEKLREVKLSPEGQKVDHCARHGEKLLLFCQEDGKVICWLCERSQEHRGHHTFLTEEVAREYQVKLQAALEMLRQKQQEAEELEADIREEKASWKTQIQYDKTNVLADFEQLRDILDWEESNELQNLEKEEEDILKSLTNSETEMVQQTQSLRELISDLEHRLQGSVMELLQGVDGVIKRTENVTLKKPETFPKNQRRVFRAPDLKGMLEVFRELTDVRRYWVDVTVAPNNISCAVISEDKRQVSSPKPQIIYGARGTRYQTFVNFNYCTNFNYCTGILGSQSITSGKHYWEVDVSKKTAWILGVCAGFQPDAMCNIEKNENYQPKYGYWVIGLEEGVKCSAFQDSSFHTPSVPFIVPLSVIICPDRVGVFLDYEACTVSFFNITNHGFLIYKFSHCSFSQPVFPYLNPRKCGVPMTLCSPSS [human TRIM5α, 6-codon duplication at 341]”, for which the enrichment is 0.794 ± 0.14.

“MASGILVNVKEEVTCPICLELLTQPLSLDCGHSFCQACLTANHKKSMLDKGESSCPVCRISYQPENIRPNRHVANIVEKLREVKLSPEGQKVDHCARHGEKLLLFCQEDGKVICWLCERSQEHRGHHTFLTEEVAREYQVKLQAALEMLRQKQQEAEELEADIREEKASWKTQIQYDKTNVLADFEQLRDILDWEESNELQNLEKEEEDILKSLTNSETEMVQQTQSLRELISDLEHRLQGSVMELLQGVDGVIKRTENVTLKKPETFPKNQRRVFRAPDLKGMLEVFRELTDVRRYWVDVTVAPNNISCAVISEDKRQVSSPKPQIIYGARGTRYQTFVNFNYCTNYCTGILGSQSITSGKHYWEVDVSKKTAWILGVCAGFQPDAMCNIEKNENYQPKYGYWVIGLEEGVKCSAFQDSSFHTPSVPFIVPLSVIICPDRVGVFLDYEACTVSFFNITNHGFLIYKFSHCSFSQPVFPYLNPRKCGVPMTLCSPSS [human TRIM5α, 4-codon duplication at 343]”: the enrichment was found to be 0.441 ± 0.47.

“MASGILVNVKEEVTCPICLELLTQPLSLDCGHSFCQACLTANHKKSMLDKGESSCPVCRISYQPENIRPNRHVANIVEKLREVKLSPEGQKVDHCARHGEKLLLFCQEDGKVICWLCERSQEHRGHHTFLTEEVAREYQVKLQAALEMLRQKQQEAEELEADIREEKASWKTQIQYDKTNVLADFEQLRDILDWEESNELQNLEKEEEDILKSLTNSETEMVQQTQSLRELISDLEHRLQGSVMELLQGVDGVIKRTENVTLKKPETFPKNQRRVFRAPDLKGMLEVFRELTDVRRYWVDVTVAPNNISCAVISEDKRQVSSPKPQIIYGARGTRYQTFVNFNYCTTFVNFNYCTGILGSQSITSGKHYWEVDVSKKTAWILGVCAGFQPDAMCNIEKNENYQPKYGYWVIGLEEGVKCSAFQDSSFHTPSVPFIVPLSVIICPDRVGVFLDYEACTVSFFNITNHGFLIYKFSHCSFSQPVFPYLNPRKCGVPMTLCSPSS [human TRIM5α, 9-codon duplication at 338]” yielded an enrichment of 4.26 ± 5.8.

Turning to “MASGILVNVKEEVTCPICLELLTQPLSLDCGHSFCQACLTANHKKSMLDKGESSCPVCRISYQPENIRPNRHVANIVEKLREVKLSPEGQKVDHCARHGEKLLLFCQEDGKVICWLCERSQEHRGHHTFLTEEVAREYQVKLQAALEMLRQKQQEAEELEADIREEKASWKTQIQYDKTNVLADFEQLRDILDWEESNELQNLEKEEEDILKSLTNSETEMVQQTQSLRELISDLEHRLQGSVMELLQGVDGVIKRTENVTLKKPETFPKNQRRVFRAPDLKGMLEVFRELTDVRRYWVDVTVAPNNISCAVISEDKRQVSSPKPQIIYGARGTRYQTFVNFNYCTVNFNYCTGILGSQSITSGKHYWEVDVSKKTAWILGVCAGFQPDAMCNIEKNENYQPKYGYWVIGLEEGVKCSAFQDSSFHTPSVPFIVPLSVIICPDRVGVFLDYEACTVSFFNITNHGFLIYKFSHCSFSQPVFPYLNPRKCGVPMTLCSPSS [human TRIM5α, 7-codon duplication at 340]”, the enrichment came to 0.135 ± 0.14.

Regarding “MASGILVNVKEEVTCPICLELLTQPLSLDCGHSFCQACLTANHKKSMLDKGESSCPVCRISYQPENIRPNRHVANIVEKLREVKLSPEGQKVDHCARHGEKLLLFCQEDGKVICWLCERSQEHRGHHTFLTEEVAREYQVKLQAALEMLRQKQQEAEELEADIREEKASWKTQIQYDKTNVLADFEQLRDILDWEESNELQNLEKEEEDILKSLTNSETEMVQQTQSLRELISDLEHRLQGSVMELLQGVDGVIKRTENVTLKKPETFPKNQRRVFRAPDLKGMLEVFRELTDVRRYWVDVTVAPNNISCAVISEDKRQVSSPKPQIIYGARGTRYQTFVNFNYCTYCTGILGSQSITSGKHYWEVDVSKKTAWILGVCAGFQPDAMCNIEKNENYQPKYGYWVIGLEEGVKCSAFQDSSFHTPSVPFIVPLSVIICPDRVGVFLDYEACTVSFFNITNHGFLIYKFSHCSFSQPVFPYLNPRKCGVPMTLCSPSS [human TRIM5α, 3-codon duplication at 344]”, the enrichment was determined as 0.648 ± 0.31.

“MASGILVNVKEEVTCPICLELLTQPLSLDCGHSFCQACLTANHKKSMLDKGESSCPVCRISYQPENIRPNRHVANIVEKLREVKLSPEGQKVDHCARHGEKLLLFCQEDGKVICWLCERSQEHRGHHTFLTEEVAREYQVKLQAALEMLRQKQQEAEELEADIREEKASWKTQIQYDKTNVLADFEQLRDILDWEESNELQNLEKEEEDILKSLTNSETEMVQQTQSLRELISDLEHRLQGSVMELLQGVDGVIKRTENVTLKKPETFPKNQRRVFRAPDLKGMLEVFRELTDVRRYWVDVTVAPNNISCAVISEDKRQVSSPKPQIIYGARGTRYQTFVNFNYCVNFNYCTGILGSQSITSGKHYWEVDVSKKTAWILGVCAGFQPDAMCNIEKNENYQPKYGYWVIGLEEGVKCSAFQDSSFHTPSVPFIVPLSVIICPDRVGVFLDYEACTVSFFNITNHGFLIYKFSHCSFSQPVFPYLNPRKCGVPMTLCSPSS [human TRIM5α, 6-codon duplication at 340]” gave an enrichment of 0.6 ± 0.012.

With “MASGILVNVKEEVTCPICLELLTQPLSLDCGHSFCQACLTANHKKSMLDKGESSCPVCRISYQPENIRPNRHVANIVEKLREVKLSPEGQKVDHCARHGEKLLLFCQEDGKVICWLCERSQEHRGHHTFLTEEVAREYQVKLQAALEMLRQKQQEAEELEADIREEKASWKTQIQYDKTNVLADFEQLRDILDWEESNELQNLEKEEEDILKSLTNSETEMVQQTQSLRELISDLEHRLQGSVMELLQGVDGVIKRTENVTLKKPETFPKNQRRVFRAPDLKGMLEVFRELTDVRRYWVDVTVAPNNISCAVISEDKRQVSSPKPQIIYGARGTRYQTFVNFNYCYCTGILGSQSITSGKHYWEVDVSKKTAWILGVCAGFQPDAMCNIEKNENYQPKYGYWVIGLEEGVKCSAFQDSSFHTPSVPFIVPLSVIICPDRVGVFLDYEACTVSFFNITNHGFLIYKFSHCSFSQPVFPYLNPRKCGVPMTLCSPSS [human TRIM5α, 2-codon duplication at 344]”, the enrichment amounted to 0.759 ± 0.49.

The sequence “MASGILVNVKEEVTCPICLELLTQPLSLDCGHSFCQACLTANHKKSMLDKGESSCPVCRISYQPENIRPNRHVANIVEKLREVKLSPEGQKVDHCARHGEKLLLFCQEDGKVICWLCERSQEHRGHHTFLTEEVAREYQVKLQAALEMLRQKQQEAEELEADIREEKASWKTQIQYDKTNVLADFEQLRDILDWEESNELQNLEKEEEDILKSLTNSETEMVQQTQSLRELISDLEHRLQGSVMELLQGVDGVIKRTENVTLKKPETFPKNQRRVFRAPDLKGMLEVFRELTDVRRYWVDVTVAPNNISCAVISEDKRQVSSPKPQIIYGARGTRYQTFVNFNYFNYCTGILGSQSITSGKHYWEVDVSKKTAWILGVCAGFQPDAMCNIEKNENYQPKYGYWVIGLEEGVKCSAFQDSSFHTPSVPFIVPLSVIICPDRVGVFLDYEACTVSFFNITNHGFLIYKFSHCSFSQPVFPYLNPRKCGVPMTLCSPSS [human TRIM5α, 3-codon duplication at 342]” had an enrichment of 0.601 ± 0.53.
